Experimental data taken from article PMC12322040 (Nature Communications, 2025).

Target: T1, GST-GCK WT (human, UniProt P35557 1-465)
T1 sequence (looked up): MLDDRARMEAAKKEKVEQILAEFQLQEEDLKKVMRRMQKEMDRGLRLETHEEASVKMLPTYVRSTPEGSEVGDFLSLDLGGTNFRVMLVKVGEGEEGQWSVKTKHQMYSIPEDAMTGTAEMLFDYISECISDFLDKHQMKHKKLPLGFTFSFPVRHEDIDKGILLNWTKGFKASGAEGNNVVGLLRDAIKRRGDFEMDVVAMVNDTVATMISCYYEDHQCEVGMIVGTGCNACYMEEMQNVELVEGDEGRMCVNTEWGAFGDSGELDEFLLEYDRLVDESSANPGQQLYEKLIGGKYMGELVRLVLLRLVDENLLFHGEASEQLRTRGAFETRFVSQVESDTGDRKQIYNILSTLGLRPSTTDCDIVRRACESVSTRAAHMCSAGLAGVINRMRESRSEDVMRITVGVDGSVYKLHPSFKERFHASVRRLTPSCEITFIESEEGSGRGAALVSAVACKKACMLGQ
Assay: pull-down

B1: His-TAZ S89D phosphorylation-mimicking mutant (natural protein)
chain: not shown
B1: binds.
